# Assay results: the BET-seq Pho4 binding data (Le et al. 2018)
# The other results are listed elsewhere or left out. Values were computed here from the reads of four pooled replicates and scatter widely.
# Biological target: T1, Pho4 (S. cerevisiae) (UniProt P07270)
# T1 sequence: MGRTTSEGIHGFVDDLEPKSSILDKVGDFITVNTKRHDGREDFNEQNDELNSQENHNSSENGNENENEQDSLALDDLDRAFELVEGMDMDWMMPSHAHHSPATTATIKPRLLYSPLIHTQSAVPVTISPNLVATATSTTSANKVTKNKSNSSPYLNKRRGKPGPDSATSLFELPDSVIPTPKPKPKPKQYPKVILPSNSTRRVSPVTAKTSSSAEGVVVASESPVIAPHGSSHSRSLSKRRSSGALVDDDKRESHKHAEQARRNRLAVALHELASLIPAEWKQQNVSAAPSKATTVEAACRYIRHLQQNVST
# Experiment: relative binding free energy (BET-seq); higher = weaker binding
# Settings: reference: library average
row,Sequence,relative binding free energy [kcal/mol]
1,TATGGCACGTGGAGGT,-0.1
2,GCGTACACGTGGTGGC,0.17
3,CAGCGCACGTGGGGGC,-0.21
4,GCTGTCACGTGGGAGA,0.1
5,TTGGTCACGTGCAGTC,0.26
6,CATGGCACGTGGTTTA,-0.19
7,TGTATCACGTGATATG,0.27
8,TTTGGCACGTGATGTT,0.03
9,AGGAACACGTGTGTCT,0.13
10,AGTATCACGTGTAAAG,0.17
11,TTGTCCACGTGAGTAG,0.24
12,GGAGACACGTGGTGAA,0.04
13,GCCGTCACGTGGGTTG,-0.02
14,GTCGGCACGTGGGTAA,-0.2
15,CGTTTCACGTGAAGAG,0.24
16,GGTTGCACGTGGTGAC,-0.01
17,TCGTTCACGTGGGGGA,0.13
18,ATGGCCACGTGGAGGA,-0.06
19,TTCGGCACGTGAGGCG,0.1
20,GTAGCCACGTGGTAGT,-0.16
21,CGTGACACGTGATTGT,0.06
22,ATGAACACGTGGTTAT,0.06
23,CAAGACACGTGTGGGG,0.11

row,Sequence,relative binding free energy [kcal/mol]
1,TGGGACACGTGGTAGC,-0.07
2,CTTGTCACGTGGTTGG,-0.03
3,GTAATCACGTGTTTGA,0.07
4,CGGGTCACGTGATTGT,0.22
5,GTGAGCACGTGAAGGG,0.15
6,GACGTCACGTGGTTAT,0.13
7,ATTCGCACGTGCTGGG,-0.16
8,GGCGACACGTGTTGAG,0.08
9,GCACGCACGTGGGGTT,-0.19
10,ATGGTCACGTGTTTAC,0.17
11,ATGAACACGTGGGGAA,-0.11
12,TTAATCACGTGGTGAT,0.01
13,TTATCCACGTGGTTTA,-0.03
14,TGTACCACGTGCGTGG,-0.24
15,GCGAGCACGTGGGGCG,-0.2
16,TGACGCACGTGGGTGT,-0.36
17,ATGGTCACGTGTTTGA,0.09
18,AGACTCACGTGTGGGG,0.31
19,TAGTACACGTGTTAGG,0.07
20,TTTGGCACGTGTTCAG,-0.08
21,AAGTTCACGTGGGAAT,0.24
22,GATTACACGTGTTTCT,0.23
23,TGAGACACGTGATGTG,0.17

row,Sequence,relative binding free energy [kcal/mol]
1,GTCGTCACGTGGGGAT,0.14
2,AAGGGCACGTGTTTTC,-0.11
3,TTGTGCACGTGTCGTG,-0.04
4,TAAGGCACGTGAGCGT,0.01
5,TTAAACACGTGTTCGG,-0.03
6,ATGTTCACGTGTTGAG,0.43
7,TAATCCACGTGGGGTG,-0.12
8,ATGAGCACGTGGTTGG,-0.11
9,ATAGTCACGTGGTGTA,-0.06
10,GGATGCACGTGAGAGA,0.19
11,ACTTACACGTGAGTGG,0.2
12,GTTTACACGTGTGTTC,0.06
13,TGTTACACGTGTGCTG,0.15
14,GTTGACACGTGCAATG,0.17
15,GGTTACACGTGTTTTA,0.22
16,GTCGGCACGTGACGGT,0.13
17,CCGGTCACGTGGGGGG,-0.09
18,TGCTGCACGTGATTTG,0.13
19,TTGTTCACGTGATTTC,0.47
20,TTCTACACGTGTTTGG,0.05
21,AGGCACACGTGGGGTA,-0.09
22,AAAGGCACGTGGGAAG,-0.21
23,TCGGGCACGTGGTCGG,-0.16

row,Sequence,relative binding free energy [kcal/mol]
1,GGGCACACGTGGAAGT,0.2
2,GTTCTCACGTGATATG,0.25
3,GTGAGCACGTGTATGC,-0.15
4,TAGAACACGTGGTGCG,-0.04
5,GCTGACACGTGGTTTG,-0.08
6,AAGGTCACGTGGAGCG,-0.05
7,GTGGACACGTGATGGT,0.14
8,TCTGGCACGTGGCGGG,-0.1
9,ATGTTCACGTGTCGTC,0.34
10,CTGGTCACGTGAGGAT,0.37
11,TTTGTCACGTGGTGGT,0.09
12,TGACGCACGTGGGGTC,-0.32
13,GGGAGCACGTGATCTG,0.09
14,CTTGACACGTGGGGTC,-0.11
15,AGGGACACGTGTATAG,-0.04
16,GTCGTCACGTGAGGGC,0.34
17,GCTTGCACGTGGGGCG,-0.21
18,TAGAGCACGTGTGGTG,-0.05
19,GGGGTCACGTGTAGCA,0.12
20,CTGTTCACGTGGAGCT,0.28
21,TTGACCACGTGGGGTA,-0.23
22,GGGGTCACGTGGGCGA,0.01
23,TTTAACACGTGTCGTG,-0.09

row,Sequence,relative binding free energy [kcal/mol]
1,TAGATCACGTGTTAAA,0.27
2,ATTCGCACGTGTATTT,-0.03
3,GAATGCACGTGATGTG,0.12
4,TTCTGCACGTGAGGTG,0.2
5,TAGGACACGTGATTTT,0.1
6,GGTCTCACGTGTATGA,0.22
7,CATGGCACGTGGGAGT,-0.17
8,TTGTCCACGTGTCGGT,0.07
9,GGTCGCACGTGTAAAG,0.06
10,AGAGGCACGTGCGCTT,-0.06
11,GGAGGCACGTGGGGCA,-0.28
12,TTGTTCACGTGAATTT,0.45
13,GGTGTCACGTGTGCGC,0.25
14,GTAATCACGTGTTTGT,0.21
15,GGTTGCACGTGATGCT,0.22
16,CTGGGCACGTGATTAG,-0.18
17,GATTGCACGTGTATGA,0.03
18,CTCGTCACGTGTGGTA,0.1
19,AATGCCACGTGTGGTG,-0.08
20,ATAATCACGTGGCGTG,0.09
21,AAGTTCACGTGAGATG,0.4
22,ATTTGCACGTGCTGGC,-0.02
23,TTATCCACGTGTGGAT,-0.02
